Reference: PubChem BioAssay AID588342 (National Center for Advancing Translational Sciences (NCATS), 2011)
The whole screen tested about 360,000 compounds, of which about 25,000 (6.9%) were called active. This list was built around the results that the source calls inconclusive (neither active nor inactive); the mix of calls is not that of the screen. The call rests on the fitted dose curve; in most records, active means well fitted inhibition curve with a large enough effect; inconclusive means small, poorly fitted or top-dose-only effect; inactive means flat fitted curve, though single readings scatter. Potencies of inconclusive entries are doubtful fits and often do not repeat.
Further: nearly all actives have a fitted effect of over 55% in size.
Potency means the concentration at half of the fitted maximal effect; tags describe the fitted curve by direction and shape.
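Wherever activity change, negative = inhibition is given: plate controls were vehicle for no effect and reference inhibitor for full effect.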

What follows are compounds tested against Luciferin 4-monooxygenase (Photinus pyralis) (UniProt P08659) (assay: qHTS profiling assay for firefly luciferase inhibitor/activator using purifed enzyme and Km concentrations of substrates (counterscreen for miR-21 project)). Conditions: purified FLuc, luminescence inhibition; series mostly up to 57.5 µM; activity change, negative = inhibition: at the top concentration.
Chain of UniProt P08659 (P08659 whole entry, looked up): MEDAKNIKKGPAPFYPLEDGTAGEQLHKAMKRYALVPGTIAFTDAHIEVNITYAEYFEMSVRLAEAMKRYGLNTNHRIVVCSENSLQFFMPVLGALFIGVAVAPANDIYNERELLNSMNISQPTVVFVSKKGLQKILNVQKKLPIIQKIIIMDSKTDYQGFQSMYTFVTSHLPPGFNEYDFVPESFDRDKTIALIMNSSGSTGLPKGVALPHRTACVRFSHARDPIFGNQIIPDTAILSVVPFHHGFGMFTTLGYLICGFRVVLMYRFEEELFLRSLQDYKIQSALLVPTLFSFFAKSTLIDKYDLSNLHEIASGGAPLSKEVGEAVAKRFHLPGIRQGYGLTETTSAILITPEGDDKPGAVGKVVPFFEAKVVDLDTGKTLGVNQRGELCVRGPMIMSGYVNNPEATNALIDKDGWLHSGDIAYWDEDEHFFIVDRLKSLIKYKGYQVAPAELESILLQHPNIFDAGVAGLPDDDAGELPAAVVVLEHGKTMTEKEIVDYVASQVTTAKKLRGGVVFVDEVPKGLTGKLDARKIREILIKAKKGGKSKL
Outline: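 Biochemical qHTS of compounds, final roughly 60 µM downward over six points, against 10 nM purified firefly luciferase using Km concentrations of substrates (10 uM D-luciferin, 10 uM ATP) in Tris acetate pH 7.5 buffer; luminescence output.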
`CCN(CC)S(=O)(=O)c1cc(NS(=O)(=O)c2cccc(C(=O)O)c2)ccc1C` was tested, and the Potency was inconclusive: 30.1 µM [inhibitor, single point]. With `COc1ccccc1NC(=O)Nc1nc(CC(=O)NCc2ccccn2)cs1` the Potency was inconclusive: 19 µM [inhibitor, single point]. For `CSc1nc(O)c(C(c2ccc(O)cc2)c2c(O)nc(SC)[nH]c2=O)c(=O)[nH]1`, the Potency was inconclusive: 37.9 µM [inhibitor, partial curve, poor fit]. In the case of `O=C(NCCO)c1nc2ccccc2s1`, the Potency is reported as inconclusive: 19 µM [inhibitor, partial curve]. With `Cc1ccc(C(=O)NNC(=O)Cc2cccs2)cc1` the Potency was inconclusive: 30.1 µM [inhibitor, single point]. For `Cc1cc(C(=O)NNC(=O)c2cccs2)nn1C(C)(C)C`, the Potency was inconclusive: 23.9 µM [inhibitor, single point]. With `CC(C)(C)C1CCc2nc(NC(=O)Cc3ccccc3)sc2C1` (stereo unspecified) the Potency was inconclusive: 21.3 µM [inhibitor, partial curve, poor fit]. With `COc1ccc(C(=O)NNC(=O)CSc2nnc(COc3ccccc3OC)n2C)cc1` the “activity change, negative = inhibition” value was inactive: -14.9%. `Cc1ccc(NC(=O)CCn2cnc3ccccc3c2=O)cc1` was tested, and the Potency was inconclusive: 23.9 µM [inhibitor, partial curve, poor fit]. For `COc1ccc(NC(=O)CSc2nc(O)cc(=O)n2C)cc1`, the Potency was inconclusive: 23.9 µM [inhibitor, partial curve, poor fit]. With `O=C(CCCN1C(=O)/C(=C\c2ccco2)SC1=S)Nc1ccc(O)cc1C(=O)O` the Potency was inconclusive: 26.9 µM [inhibitor, partial curve, poor fit]. For `O=C(Cc1ccccc1)NCc1ccc(F)cc1`, the Potency was inconclusive: 16.9 µM [inhibitor, partial curve, poor fit]. In the case of `COc1ccccc1CN1CC(C(=O)N2CCCCO2)CCC1=O` (stereo unspecified), the Potency is reported as inconclusive: 23.9 µM [inhibitor, single point]. In the case of `Cc1ccc(CNC(=O)CN(c2ccc(Cl)cc2)S(C)(=O)=O)cc1`, the Potency is reported as inconclusive: 26.9 µM [inhibitor, partial curve, poor fit]. For `Cc1ccc(OCC(=O)c2cc(C)n(Cc3cccs3)c2C)c([N+](=O)[O-])n1`, the Potency was inconclusive: 23.9 µM [inhibitor, partial curve]. `Cc1cccc(COc2ccc(/C(O)=C3\C(=O)C(=O)N(CCN(C)C)C3c3ccncc3)cc2)c1` (stereo unspecified) was tested, and the Potency was inconclusive: 37.9 µM [inhibitor, partial curve, poor fit]. With `COc1ccc2nc(SCc3nc(N)nc(Nc4ccccc4)n3)[nH]c2c1` the Potency was active: 13.5 µM. In the case of `Oc1ccc(NCc2ccccc2OCc2ccc(Cl)cc2)cc1`, the Potency is reported as active: 21.3 µM. For `COc1cc(/C=C2\CCCc3c2nc2ccccc2c3C(=O)O)cc(Br)c1O`, the Potency was inconclusive: 23.9 µM [inhibitor, partial curve, poor fit]. In the case of `CS(=O)(=O)N1CCN(Cc2ccc([N+](=O)[O-])cc2)CC1`, the “activity change, negative = inhibition” value is reported as inactive: -3.06%. In the case of `CCN(C(=O)c1cc2ccccc2o1)C12CC3CC(CC(C3)C1)C2`, the Potency is reported as inconclusive: 21.3 µM [inhibitor, partial curve, poor fit]. `Cc1cccc2c1cnn2C(=O)Nc1ccccc1Br` was tested, and the Potency was inconclusive: 1.51 µM [inhibitor, full curve]. With `COC(=O)C1CCN(C(=O)COC(=O)c2oc3ccc(OC)cc3c2C)CC1` the “activity change, negative = inhibition” value was inactive: -5.67%. `COc1ccc(NC(=O)c2ccco2)cc1NC(=O)c1ccccc1F` was tested, and the “activity change, negative = inhibition” value was inactive: -11.8%. With `Cc1ccc(Nc2nc(CSc3nnc(-c4cccnc4)n3-c3ccccc3C)cs2)cc1` the Potency was active: 10.7 µM. In the case of `O=C(Nc1ccc(Br)cc1)c1ccc2c(c1)OCO2`, the Potency is reported as active: 2.13 µM. In the case of `Cc1nc(SCCOc2ccccc2F)[nH]c(=O)c1Cc1ccccc1`, the Potency is reported as “inactive”. With `COc1ccc(CNC(=O)CS(=O)Cc2nc(-c3cccc(C)c3)oc2C)cc1` (stereo unspecified) the “activity change, negative = inhibition” value was inactive: -17.5%. `Cc1ccc(C2CC(c3cccc(C)c3)n3nc(N)nc3N2)cc1` (stereo unspecified) was tested, and the “activity change, negative = inhibition” value was inactive: 1.9%. With `COc1cccc(NC(=O)Nc2nnc(N3CCCCC3C)s2)c1` (stereo unspecified) the Potency was active: 13.5 µM. For `O=C(N/N=C/c1ccccc1O)/C(=C/c1ccccc1)CCO`, the Potency was inconclusive: 19 µM [inhibitor, partial curve]. In the case of `COc1ccc(S(=O)(=O)NC2CCc3ccccc32)cc1OC` (stereo unspecified), the “activity change, negative = inhibition” value is reported as inactive: -0.994%. For `CS(=O)(=O)c1ccc(-c2csc(-c3cccnc3)n2)cc1`, the Potency was inconclusive: 21.3 µM [inhibitor, single point]. In the case of `O=C(NNc1ccccc1[N+](=O)[O-])Nc1cccc(Cl)c1`, the Potency is reported as inconclusive: 23.9 µM [inhibitor, partial curve]. `COc1ccc2oc(-c3cccc(NC(=O)CSc4ccc(Cl)cc4)c3)nc2c1` was tested, and the Potency was inconclusive: 5.36 µM [inhibitor, partial curve, poor fit]. `Cc1ccc(-n2ncc3c(=O)n(CC(=O)NC4CCCCC4)cnc32)cc1` was tested, and the Potency was inconclusive: 16.9 µM [inhibitor, partial curve]. `Cc1c(Br)c(=O)oc2c(Br)c(O)ccc12` was tested, and the Potency was inconclusive: 23.9 µM [inhibitor, partial curve]. For `CCCOc1ccc(/C=N/Nc2ccccc2[N+](=O)[O-])c(OCCC)c1`, the Potency was inconclusive: 21.3 µM [inhibitor, partial curve]. With `COCCCNC(=O)c1cc2cc3cc(OC)ccc3nc2o1` the Potency was inconclusive: 21.3 µM [inhibitor, partial curve, poor fit]. In the case of `NC(=O)COC(=O)c1cc(-c2ccco2)nc2ccccc12`, the Potency is reported as inconclusive: 23.9 µM [inhibitor, partial curve]. With `O=C(CSc1ncn[nH]1)Nc1nsc(-c2ccccc2)n1` the Potency was inconclusive: 23.9 µM [inhibitor, partial curve]. In the case of `O=C1CN(C(=O)c2ccccc2[N+](=O)[O-])C(c2ccccc2)c2cc(Br)ccc2N1` (stereo unspecified), the “activity change, negative = inhibition” value is reported as inactive: 1.65%. In the case of `CC(C)Oc1ccc2c3c(c(=O)oc2c1)CCC3`, the Potency is reported as inconclusive: 23.9 µM [inhibitor, single point]. For `CN(C)c1oc(/C=C/c2cccs2)nc1S(=O)(=O)c1ccccc1`, the “activity change, negative = inhibition” value was inactive: -2.71%. `CNC(=O)c1ccc(-c2cc(C(F)(F)F)nn2C)s1` was tested, and the Potency was inconclusive: 37.9 µM [inhibitor, single point]. With `COc1cccc(NC(=O)c2ccc(-n3cccn3)nc2)c1` the Potency was inconclusive: 19 µM [inhibitor, partial curve]. With `C(=N\n1cnnc1)/c1ccc(N2CCOCC2)cc1` the Potency was inconclusive: 23.9 µM [inhibitor, single point]. `CCc1ccc(C2C(C(=O)Nc3ccccc3C)=C(C)Nc3nc(SCc4cccc(OC)c4)nn32)cc1` (stereo unspecified) was tested, and the “activity change, negative = inhibition” value was inactive: -0.579%. In the case of `Cn1c(O)c(N=NC(=O)c2cccc(S(=O)(=O)N3CCCCC3)c2)c2ccccc21`, the “activity change, negative = inhibition” value is reported as inactive: -16.6%. In the case of `O=C(O)CCCCCN1C(=O)C(O)=C(C(=O)/C=C/c2ccccc2)C1c1ccccc1[N+](=O)[O-]` (stereo unspecified), the Potency is reported as inconclusive: 21.3 µM [inhibitor, partial curve, poor fit]. In the case of `COc1ccccc1/C=C/C=N/n1c(-c2cc(C)[nH]n2)n[nH]c1=S`, the Potency is reported as active: 21.3 µM. For `CC(=O)Nc1nc(-c2ccc([N+](=O)[O-])cc2)cs1`, the “activity change, negative = inhibition” value was inactive: 1.1%. In the case of `O=c1oc(-c2ccccc2Cl)nc2ccsc12`, the Potency is reported as inconclusive: 23.9 µM [inhibitor, single point]. For `O=C(CSc1ncc(-c2ccc(F)cc2)[nH]1)N1CCCCC1`, the Potency was inconclusive: 21.3 µM [inhibitor, single point]. For `CCS(=O)(=O)c1ncc(N(Cc2ccco2)Cc2ccccc2F)c(C(=O)Nc2cccc(Cl)c2)n1`, the “activity change, negative = inhibition” value was inactive: -2.25%. For `O=C(Cn1c(=O)nc(-c2ccccc2)c2ccccc21)NCc1ccccc1Cl`, the Potency was inconclusive: 30.1 µM [inhibitor, partial curve, poor fit]. For `C/C(=N\N=C(/N)SC1CC(=O)N(c2ccc(Br)cc2)C1=O)c1cccs1` (stereo unspecified), the Potency was inconclusive: 37.9 µM [inhibitor, partial curve, poor fit]. In the case of `N#Cc1ccc(-c2nc3ccc(Br)cc3c(=O)n2O)cc1`, the “activity change, negative = inhibition” value is reported as inactive: -2.59%. `COCCn1c(SCC(=O)Nc2cccc(S(N)(=O)=O)c2)nc2cc(Cl)ccc2c1=O` was tested, and the “activity change, negative = inhibition” value was inactive: -2.86%. In the case of `Cc1ccc(-c2ccc(/C=C3\C(=O)ON=C3c3ccccc3)o2)c([N+](=O)[O-])c1`, the Potency is reported as inconclusive: 9.53 µM [inhibitor, partial curve]. In the case of `C/C(=C\c1ccco1)C1Nc2cccc3cccc(c23)N1`, the Potency is reported as active: 10.7 µM. In the case of `S=c1[nH]nc(NCCCN2CCOCC2)s1`, the Potency is reported as inconclusive: 30.1 µM [inhibitor, single point]. `S=C(Nc1ccc(Cl)cc1)NN1CCOCC1` was tested, and the “activity change, negative = inhibition” value was inactive: 1.55%. For `COc1cccc(N=Nc2ccc(O)c3ncccc23)c1`, the Potency was active: 6.01 µM. For `COc1ccc(NC(=O)Nc2ccc(C)cc2OC(F)F)cc1OC`, the “activity change, negative = inhibition” value was inactive: -1.49%. For `c1ccc2sc(N3CCOCC3)nc2c1`, the Potency was inconclusive: 26.9 µM [inhibitor, single point]. `Nc1c(C(=O)Nc2ccccc2F)sc2nc(-c3cccnc3)ccc12` was tested, and the Potency was inconclusive: 21.3 µM [inhibitor, partial curve]. In the case of `CC(=O)c1cccc(NC(=S)NC(=O)c2ccccc2Cl)c1`, the Potency is reported as inconclusive: 26.9 µM [inhibitor, single point]. In the case of `CC1CCN(C(=O)COC(=O)c2cc(Cl)c3c(c2)OCO3)CC1`, the Potency is reported as inconclusive: 26.9 µM [inhibitor, single point]. With `COc1cc(NC(=O)CCC2CCCC2)cc(-n2cnnn2)c1` the Potency was inconclusive: 12 µM [inhibitor, partial curve]. `CCc1n[nH]c(=S)n1/N=C/c1cc(OC)cc([N+](=O)[O-])c1O` was tested, and the Potency was inconclusive: 26.9 µM [inhibitor, partial curve].
